The results in this text go back to the supplement of paper PMC11417369.

This is one part of the list.

The experiment concerns PfHDP1 homeodomain (GST-tagged). As to the kind of experiment: gcPBM binding intensity (ln(normalized median fluorescence intensity)); higher = stronger DNA binding. Summed up: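 Plasmodium falciparum DNA-binding domains carrying a GST tag were expressed in E. coli and applied for 1 h, at about 25 μg on average, to an Agilent 4 × 180k array. The array held primer-extended double-stranded 36-bp intergenic genomic probes together with negative controls, and binding took place in 1× PBS with 1% milk, 0.2 mg/ml BSA, 0.5% salmon testes DNA and 0.03% Triton X-100. An Alexa488 anti-GST antibody detected bound protein, and the array was scanned at 488 nm. Binding intensity is taken as the highest Masliner-normalised natural-log median intensity across replicate spots of either probe orientation.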
As to “TACTGTGATAGCACCACACACGCAAAAGTGAGTATA [CACACA_site1109]”, the “gcPBM binding intensity (ln)” value worked out at 6.66.
With “TATATTTAGTAAAAAGGTACCATTCTTATTTATATT [CACACA_negctrl_site1165]”, the “gcPBM binding intensity (ln)” value is 6.04.
As for “TATATTAATAGACACACACACATATTTATATTTATA [CACACA_site6859]”, the “gcPBM binding intensity (ln)” value stood at 6.73.
Turning to “TTTCAGCCAAACGATAAACTACGACACTTGAACGAA [CACACA_negctrl_site1747]”, the “gcPBM binding intensity (ln)” value was found to be 6.22.
For “TATATATATATATATTGTACTAATTGTGCAAATGAG [XGTACX_site682]”, the “gcPBM binding intensity (ln)” value was found to be 10.9.
Consider “TAAGAAAAAAAATAATGTACATATGTATTTGAGAAA [XGTACX_site3569]”, for which the “gcPBM binding intensity (ln)” value is 6.44.
As for “GAAATTTTTAAATACAGTACACACATGGGTTTAAAT [XGTACX_site6124]”, the “gcPBM binding intensity (ln)” value is 6.65.
With “ATACTTCAATCTATTTGTACATATTTTTTAAAACCA [XGTACX_site2328]”, the “gcPBM binding intensity (ln)” value was determined as 6.89.
Consider “ATAAAGCCATACAATACACACATTTGACATGTCCGT [CACACA_site7523]”, for which the “gcPBM binding intensity (ln)” value stood at 6.97.
For “AATAATAAAAAATATACACACATATATAAATAAATA [CACACA_site6164]”, the “gcPBM binding intensity (ln)” value worked out at 6.35.
To “TGCTACTTATAAATAGAACACACATAAGTGTATTTG [CACACA_site9253]” belongs 6.3; to “AAGAAAAAAAAAAAAAAAAAAAAAAAAAAGGAAAAA [GTGCAC_negctrl_site174]”, 5.84; to “AAAAAAAAAAAAAAAAAAAAAAAAAAATATATATAT [CACACA_negctrl_site271]”, 8.36.
For the sequence “TATATGGAGAGATATGCACACTGTATGAATGCCCCC [CACACA_site8853]”, the “gcPBM binding intensity (ln)” value was 9.19.
“TATTTATACATAGGTGGTACTACTTTAAACAAAAAA [XGTACX_site5062]”: the “gcPBM binding intensity (ln)” value turned out to be 6.36.
On to “AAATAAATAATATTCACACATAAAAAAAATGGAGTT [CACACA_site4525]”, for which the “gcPBM binding intensity (ln)” value turned out to be 6.43.
Consider “TATTTACACAAAATAAAATATATTATATATATATAT [TGCATGCA_negctrl_site381]”, for which the “gcPBM binding intensity (ln)” value was found to be 8.72.
Take “TTGCACAGATTAATCAAAAATTTTAAACCAAATATA [XGTACX_negctrl_site38]”: the “gcPBM binding intensity (ln)” value was determined as 6.77.
As to “AGAATAGAATAAAAAACACACATTTACAACATTATT [CACACA_site3894]”, the “gcPBM binding intensity (ln)” value is 6.52.
In the case of “ATAAAAATAAAATGGACACACATATATACCTATTTG [CACACA_site5761]”, the “gcPBM binding intensity (ln)” value stood at 6.35.
Then “TGATATTTTATTATTAAAATATATACATATATATAT [CACACA_negctrl_site1456]”, with 8.14; and “AAGAAAAAAAAAAAAAAAGATACTTTTTTAAAACTA [TGCATGCA_negctrl_site13]”, with 5.95.
For “GTGCAATATTTATTTTGTACATATTTATCAATAAAC [XGTACX_site8297]”, the “gcPBM binding intensity (ln)” value was 7.29.
Turning to “TTATATTTTTACAAGAGTACATATATATATATATAT [XGTACX_site5383]”, the “gcPBM binding intensity (ln)” value turned out to be 9.54.
With “ATTAAATATATTAAATGTACATAATATATATATATA [XGTACX_site5032]”, the “gcPBM binding intensity (ln)” value was 8.75.
For the sequence “TTTATTTGATGAACATGTACAAAAAAACAAAGAACA [XGTACX_site823]”, the “gcPBM binding intensity (ln)” value is 6.7.
Regarding “TCAAACCAGTTGATGTGTACACATATAGTAATAATT [XGTACX_site6014]”, the “gcPBM binding intensity (ln)” value came to 7.25.
To “CATACACCCCAACACACACACACACCCATATATAAT [CACACA_site8097]” belongs 7.24.
To “AAAAAAAAAAAAAAAAGTACATATATTATATATATA [XGTACX_site2983]” belongs 7.66; to “TGAAAAAAGAAAAATACACACATATAATATAATATA [CACACA_site2255]”, 6.58; to “TTATATAAGATATTTCGTACACATTCAAAAATTATG [XGTACX_site7375]”, 6.36.
“AATAAAATATAAGGGGGTACGGAGAAAGGATACTAT [XGTACX_site7733]”: the “gcPBM binding intensity (ln)” value is 6.91.
In the case of “ATATATATTATTGAATGTACATAATTATTTAATAGT [XGTACX_site4971]”, the “gcPBM binding intensity (ln)” value turned out to be 6.95.
For “ATATATTCACGTTAATGTACACATAATAAATTATAT [XGTACX_site5481]”, the “gcPBM binding intensity (ln)” value turned out to be 6.72.
In the case of “GTATTTAGATGATTAACACACATATGTGTATTAATA [CACACA_site6733]”, the “gcPBM binding intensity (ln)” value was 6.88.
Then “TATTCACTGATATGTTGTACATAAAAAAAATTAAAT [XGTACX_site6128]”, with 6.58; and “AATTATATTGGTTGTAGTACTAAAAGTAAGTTAATG [XGTACX_site33]”, with 6.49; and “CACGCACGCACATACACACACATACACATATAAATA [CACACA_site6907]”, with 8.84.
In the case of ATATTTAAAAATATAGTGCAATTATTCTAATGTGTT, the “gcPBM binding intensity (ln)” value came out at 8.89.
As for “ATATTTCATTAATGAACACACAAAGAGGTATATAAA [CACACA_site1519]”, the “gcPBM binding intensity (ln)” value came out at 6.86.
With “AGCTCTCAAAATTATTCACACGTGTCCTGTTATATA [CACACA_site5415]”, the “gcPBM binding intensity (ln)” value was found to be 7.13.
“AAATAAAAGGTTGAGAGTACATTTTTGTGTATGTAT [XGTACX_site5547]”: the “gcPBM binding intensity (ln)” value was 6.49.
On to “ATATATTATTTTAAATGTACTCATAATAGAAATGTC [XGTACX_site40]”, for which the “gcPBM binding intensity (ln)” value came out at 6.15.
As for “ATATAAAGAAAAGGAACACACAAATATATATATATA [CACACA_site463]”, the “gcPBM binding intensity (ln)” value was 9.12.
